Data on 34 variants can be found in the RNAGym collection of RNA variant scans (doi:10.1093/nar/gkz1192).

To fix the notation:
B1: CPEB3 Ribozyme (parent)
chain: UAACAGGGGGCCACAGCAGAAGCGUUCACGUCGCAGCCCCUGUCAGAUUCUGGUGAAUCUGCGAAUUCUGCUGUAUAUCUC

The source gives no read counts; variants with many changes may rest on few reads.

Variants of B1 are the subject of this series. As to the kind of experiment: self-cleavage, relative activity (ratio to wild type); higher = more cleavage; in vitro, sequencing. The essentials:
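Libraries of CPEB3 self-cleaving ribozyme mutants came from rounds of error-prone PCR and carried barcodes, which DNA sequencing matched to variants. In vitro transcription used T7 RNA polymerase at 37°C for 5 hours, with a further 15 min in DNase I before EDTA stopped the reaction; the ribozymes cleaved during both steps. The RNA was reverse transcribed with template switching and sequenced on Illumina. Relative activity is the cleaved/total read fraction of a variant divided by that of the unmutated ribozyme, averaged over three batches with at least 5 reads.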
Take UAACAGGGGGCCACAGCUGAAGCGUUCACGUCGCAGCCCUUGUCAGAUACUGGUGAAUCUGCGAAUUCUGCUGUAUAUCUC [A18U C40U U49A]: the self-cleavage was 0.25. As for UAACAGGGGGCCACAGCUAAAGCGUUCACGUCGCAGCCCCCGUCAGAUUCUGGUGAAUCUGCGAAUUCUGCUGUAUAUCUC [A18U G19A U41C], the self-cleavage worked out at 0.39. Regarding UAACAGGGGGCCACAGCUGAAGCGUUCACGUCGCAGCCCCUGUCAGAUUCUGGUGGUUCUGCGAAUUCUGCUGUAUAUCUC [A18U A56G A57U], the self-cleavage worked out at 0.33. Regarding UAACAGGGGGCCACAGCUGAAGCGUUCACGUCGCAGCCCCUGUCAGAUUCUGGUGUGUCUGCGAAUUCUGCUGUAUAUCUC [A18U A56U A57G], the self-cleavage was found to be 0.18. Regarding UAACAGGGGGCCACAGCUGAAGCGUUCACGUCGCAGCCCCUGUCAGAUUCUGGUGGAUCUGCGAAUUCUGCUGUGUAUCUC [A18U A56G A75G], the self-cleavage is 0.29.

Take UAACAGGGGGCCACAGCUGAAGCGUUCACGUCGCAGCCCCUGUCAGAUUCUGGUGAGUCCGCGAAUCAUGCCGUAUAUCUC [A18U A57G U60C U67C C68A U72C]: the self-cleavage was found to be 0.16. UAACAGGGGGCCACAGCUGAAGCGUUCAUGUCGCAGCCCCUGUCGGAUUCUGGUGAAUCUGCGAAUUCUGCUGUAUAUCUC [A18U C29U A45G]: the self-cleavage came to 0.16.

Regarding UAACAGGGGGCCACAGCUUAAGCGUUCACGUCGCAGCCCCUGUCAGAUACUGGUGAACCUGCGAACUCUGCUGUAUAUCUC [A18U G19U U49A U58C U66C], the self-cleavage was 0.4. UAACAGGGGGCCACAGCUAAAGCGUUCGCGUCGCAGCCCCUGUCAGAUUCUGGUGAAUCUGCGAAUACUGCUGUAAAUCUC [A18U G19A A28G U67A U76A]: the self-cleavage turned out to be 0.1. Next, UAACAGGGGGCCACAGCUGAAGCGUUCACGUCGCAGCCCUUGCCCGAUUCUGGUGAAUCUGCGAAUUCUGCUGUAUAUCCC [A18U C40U U43C A45C U80C]: 0.07; UAACAGGGGGCCACAGCUGAAGCGUUCACGUCGCAGGCCCUGUCAGGAUCUGGUGAAUCUGCGAAUUCCGCUGUGUAUCUC [A18U C37G A47G U48A U69C A75G]: 0.06. As for UAACAGGGGGCCACAGCUGAAGCGUUCACGUAGCAGCCCCCGUCAGAUUCCGGUGGAUCUGCGAAUUCUGCUGCAUAUCUC [A18U C32A U41C U51C A56G U74C], the self-cleavage came out at 0.08. Regarding UAACAGGGGGCCACAGCUAAAGCGUUCACGUCACAGCCCCUGUCAGAUACUGGUGAAUCUGCGAACUCUGCUGUAUAUCGC [A18U G19A G33A U49A U66C U80G], the self-cleavage turned out to be 0.04.

In the case of UAACAGGGGGCCACAGCUAAAGCGUUCACGUCGCAGCCCCUGCCGGAUUCUGGUGAGCCUGCGAAUUCUGCUGUAUAUCUC [A18U G19A U43C A45G A57G U58C], the self-cleavage worked out at 0.15. Next, UAACAGGGGGCCACAGCUGAAGUGUUCACGCCGCAGCCCCUGUCAGAUUCUGGGGAAUCUGUGAAUUCCGCUGUAUAUCUC [A18U C23U U31C U54G C62U U69C]: 0.15; UAACAGGGGGCCACAGCUGAAGCGUUCACGUCGCAGCCCCUGUCAGAUUCUGGUGGGUCUGCGAGUUCUGCUGUAUACCUA [A18U A56G A57G A65G U78C C81A]: 0.09. Turning to UAACAGGGGGCCACAGCUGAAGCGUUCACGUCGCAGCCCAUGUCAGACUCCGGUGAAUCUGCGAAUUCUGCUGUAUAUCUC [A18U C40A U48C U51C], the self-cleavage was found to be 0.08. As for UAACAGGGGGCCACAGCUGAAGCGUUCACGUAGCAGCCCCUGUCAGAUUCUGGAGAAUCUGCGAAUUCCGCUGUAUAUCUC [A18U C32A U54A U69C], the self-cleavage was 0.06. As to UAACAGGGGGCCACAGCUGAAGCGUUCACGUCGCAGCACCUGUCAGAUUCAGGUGGAUCUGCGAAUUCUGCUGUAUACCUC [A18U C38A U51A A56G U78C], the self-cleavage came to 0.13. Then UAACAGGGGGCCACAGCUGAAGCGUUCACGUUGCAGCCCCUGCCAGAUUCUGGUGAGUCUGCGAAUACUGCCGUAUAUCUC [A18U C32U U43C A57G U67A U72C], with 0.08. For the variant UAACAGGGGGCCACAGCUGAAGCGUUCACGUCGCAGCCCCUGUCAGAUUCUGGUGAAUCUGCGUAUUCUGCUGUGUAUCUC [A18U A64U A75G], the self-cleavage amounted to 0.2.

UAACAGGGGGCCACAGCUGAAGCGUUCACGUCGCAGCCCCUGUCAGAUUCUGGUGGAUCUGCGAACUCUGCUGUAUAUCUC [A18U A56G U66C]: the self-cleavage stood at 0.16. Next, UAACAGGGGGCCACAGCUGAAGCGUUCACGUCGCAGCCUCUGUCAGACUCUGGUGAAUCUGCGAAUUCUGCUGUAUAUCUC [A18U C39U U48C]: 0.47; UAACAGGGGGCCACAGCUGAAGCGUUCACGUCGCAGCCCCUGUCAGAUUCUGGUGGAUCUGCGGAUUCUGCUGUAUAUCUC [A18U A56G A64G]: 0.21; UAACAGGGGGCCACAGCUGAAGCGUUCAGGUCGCAGUCCCUGUCAGAUUCUGGUGAAUCUGCGAAUUCUGCUGUAUAUCUC [A18U C29G C37U]: 0.12.

For UAACAGGGGGCCACAGCUGAAGCGUUCAUGUCGCAGCCCCUGUCAGACUCUGGUGAAUCUGCGAAUUCUGCUGUAUAUCUC [A18U C29U U48C], the self-cleavage came to 0.13. On to UAACAGGGGGCCACAGCUGAAGCGUUCACGUCGCAGUCCCUGUCAGACUCUGGUGAAUCUGCGAAUUCUGCAGUACAUCUC [A18U C37U U48C U72A U76C], for which the self-cleavage was 0.12. Then UAACAGGGGGCCACAGCUGAAGCGUUCAUGUCGCAGCCCCUGUCAGAUUCUGGUGAAUCUGCGGUUCCUGCUGUAUACCUC [A18U C29U A64G A65U U67C U78C], with 0.12; and UAACAGGGGGCCACAGCUGAAGCGUUCACGUCGCAGCCCCUGUCAGAUUCUGGUGAGUCCGCGAAUUCUGCUGUAUAUCCC [A18U A57G U60C U80C], with 0.18; and UAACAGGGGGCCACAGCUGAAGCGUUCACGUCGCAGCCCCUGUCAGAUUCUGGUGCAUCAGCGAAUUCUGCUGUAUAUCUC [A18U A56C U60A], with 0.14. Consider UAACAGGGGGCCACAGCUGAAGCGUUCACGUCGAAGCCCCAGUCAGAUCCUGGUGAAUCUGCGAAUCCUGCUGUAUAUCAC [A18U C34A U41A U49C U67C U80A], for which the self-cleavage was found to be 0.09. Then UAACAGGGGGCCACAGCUGAAGCGUUCACGUCGGAGCCCCUGUCAGAUUCAGGUGAAUCUGCGAAUUCGGCUGUAUAUCUC [A18U C34G U51A U69G], with 0.07; and UAACAGGGGGCCACAGCUGAAGCGUUCACGUAGCGGACCCUGUCAGAUUCUGGUGGAUCUACGAAUUCUGCUGUAUAUCUC [A18U C32A A35G C37A A56G G61A], with 0.14.

With UAACAGGGGGCCACAGCUGAAGCGUUCACGUCGCAGCCCCUGUGAGAUUCUGGUGAAUCUGCGAAUCCUGCUGUAUAUCUC [A18U C44G U67C], the self-cleavage was 0.13.
